From PubChem BioAssay (NCI) come the findings set out here.

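1) Cells in 96-well plates. 2) Compound, 48 h, 5 concentrations. 3) Linear interpolation between surrounding doses. 4) Unreached endpoint = highest concentration. GI50 marks 50% less growth. At the TGI there is no net growth.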

This experiment has as its system NCI-H322M lung. Briefly: NCI anticancer screen, dose series, 48 h.
Take `COc1cccc(C2C(C#N)=C(N)Oc3cc(N)ccc32)c1` (configuration not stated): the GI50 was 1.94 µM and the TGI was over 100 µM.
In the case of `Cc1ccc(NC(=O)NC(=O)c2ccc([N+](=O)[O-])cc2[N+](=O)[O-])cc1Oc1ncc(Cl)cn1`, the TGI came out at 23.8 µM.
On the same count and under the same terms, the figure for `CN1C2(c3ccccc3)c3c(-c4ccccc4)sc(-c4ccccc4)c3C1(c1ccccc1)C1C(=O)N(c3ccccc3)C(=O)C12` (configuration not stated) is over 100 µM; for `O=C(CO)CC(=O)C(=O)Nc1nc([N+](=O)[O-])cs1` it is over 100 µM.
On the same count and under the same terms, the figure for `COc1cccc(NC(=S)Nn2c(C)nc3ccccc3c2=O)c1` is over 100 µM; for `CC1(c2nc3cc(Cl)c(Cl)cc3[nH]2)CCC(CO)C(C)(C)O1` (configuration not stated) it is over 100 µM.
For `CC(=O)Nc1ccc(Sc2ccc([N+](=O)[O-])o2)cc1`, the GI50 is 12.1 µM and the TGI was determined as 26.1 µM.
For `CCN(CC)c1cc(/C=C/c2ccc(OC)c(OC)c2)nc2cc(F)c(F)cc12` the same measures were over 100 µM and over 100 µM.
Turning to `N/N=C1\C(=O)N(C2CCCCC2)C(=O)C1C(=O)NC1CCCCC1` (configuration not stated), the TGI is over 100 µM.
Turning to `O=C1/C(=C\c2cccc(Oc3ccccc3)c2)S(=O)(=O)C(c2ccccc2)N1c1ccc(Cl)cc1` (configuration not stated), the TGI is over 100 µM.
Still for that read-out and setting: the figure for `N#CC(C(=O)/C(=N\Nc1nc(=S)[nH]n1N)C(C#N)c1ccc(Cl)cc1)c1ccc(Cl)cc1` (configuration not stated) is over 100 µM.
As to `Cc1ccc(C2NC(=S)NC3=C2CCOc2c3ccc3ccccc23)cc1` (configuration not stated), the GI50 was over 100 µM and the TGI was over 100 µM.
The molecule `CC1=CC(=O)CCC2(C)C1CC[C@@H]2OC=O` (some centres not stated) returned a TGI of over 100 µM.
`CC(=O)N1CC(Nc2ccc(OC(F)(F)F)cc2)=CC1=O`: the GI50 is over 100 µM and the TGI is over 100 µM.
With `COc1ccc2nc3cccc([N+](=O)[O-])c3c(NCCO)c2c1`, the TGI came to 0.174 µM.
In turn, `O=C1NC(Cc2c[nH]c3ccccc23)C(=O)N2C(C3CCCCC3)c3[nH]c4ccccc4c3C[C@@H]12` (some centres not stated) yielded a TGI of 59.6 µM.
Consider `O=C(OCc1ccccc1)N1CCN(/[N+]([O-])=N/Oc2ccc([N+](=O)[O-])cc2[N+](=O)[O-])CC1`, for which the GI50 was 14.3 µM and the TGI is 27.8 µM.
For the molecule `Cc1ccc(S(=O)(=O)NN=C2CCCCCCCCCCC2)cc1`, the TGI was over 100 µM.
As to `COc1cc(/C=C/c2cc(/C=C/c3ccc(O)c(OC)c3)n(-c3c(C)cccc3C)c(=O)n2)ccc1O`, the GI50 is 0.952 µM and the TGI is 5.34 µM.
In the case of `CC(=O)O/N=C/c1ncccc1OC(C)=O`, the TGI was over 100 µM.
On the same count and under the same terms, under `CC/C=C1\N=C(c2ccc(Cl)cc2)OC1=O` stands over 100 µM; under `CCC1=CC2CN3CCc4c([nH]c5ccccc45)C(C(=O)OC)(C2)C13` (configuration not stated), 92.3 µM; under `COCC1OC(OC2C3=C(C(C)C)CCC3(C)/C=C3\C(CCC3(O)COC)C(C)C2O)C(O)C2OC3OC12OC3(C)C1CO1` (configuration not stated), over 100 µM.
In turn, `OC12COc3ccccc3C1Oc1ccccc1C2` (configuration not stated) yielded a TGI of over 100 µM.
The same measure, in the same setting: under `O=C(O)C1CCCN1Cc1cc2ccccc2c2ccccc12` (configuration not stated) stands over 100 µM.
Still for that read-out and setting: under `O=[N+]([O-])c1ccc(C2=NOC(c3ccccc3F)N2C23CC4CC(CC(C4)C2)C3)cc1` (configuration not stated) stands over 100 µM; under `CC1(C)C(=O)C(C)(C)C12SSC1(S2)C(C)(C)C(=O)C1(C)C`, over 100 µM.
The same measure, in the same setting: the figure for `CCn1c2c(n(CC)c1=S)-c1c(n(CC)c(=S)n1CC)SSSS2` is over 95.7 µM.
Turning to `O=C1C(CN2CCCCC2)CCCC1CN1CCCCC1` (configuration not stated), the TGI was over 100 µM.
As to `Cc1ccc(-c2c(C#N)c(S)n(NS(=O)(=O)c3ccc(C)cc3)c(=O)c2C#N)cc1`, the TGI is over 100 µM.
`CS(=O)CCCCCN=C=S` (configuration not stated): the GI50 is 4.96 µM and the TGI stood at 20.5 µM.
As to `NC(=O)C1=NNc2ccccc2C(=O)N1c1ccccc1`, the TGI was over 100 µM.
Molecule `O=C(CC1(O)C(=O)Nc2ccccc21)c1ccccc1Cl` (configuration not stated) displayed a TGI of over 100 µM.
With `CCOC(=O)c1sc2nc3sc(N=Nc4ccc(Cl)cc4)c(O)n3c(=S)c2c1C`, the GI50 is 17.6 µM and the TGI was 54.2 µM.
On the same counts, the results for `COC(=O)c1ccc2c(c1)nc(-c1cc3ccccc3[nH]c1=O)n2-c1cc(C(C)(C)C)[nH]n1` are 1.28 µM and over 100 µM.
In turn, `COC(=O)C(CCCC1(c2ccccc2)OCCO1)C(C)=O` (configuration not stated) came in with a TGI of over 100 µM.
Still for that read-out and setting: the figure for `CC(C)(C)c1nc2c(o1)C(=O)c1ccccc1C2=O` is 5.73 µM.
Take `O=C1C(Br)=CC2(C=C1Br)CCN=c1c2c(O)c2nc3ccccc3c3ccnc1c23`: the GI50 was 9.02 µM and the TGI was 16.7 µM.
Molecule `CC(C)c1ccccc1NC(=O)C(=O)Cc1nc2ccccc2s1` displayed a TGI of over 100 µM.
Still for that read-out and setting: under `COc1ccc(C(O)/C(=N\NC(N)=S)c2nc3ccc([N+](=O)[O-])cc3[nH]c2=O)cc1OC` (configuration not stated) stands over 100 µM.
Consider `CCOc1ccc([C@@H]2[C@@H](Oc3ccccc3)C(=O)N2c2cc(OC)c(OC)c(OC)c2)cc1`, for which the GI50 was 0.831 µM and the TGI was over 100 µM.
In the case of `O=c1[nH]c(Nc2cccc(C(F)(F)F)c2)nc2nc[nH]c12`, the TGI was over 100 µM.
For the molecule `Cc1cc2c(=O)n(-c3ccc(F)cc3)c(C)nc2c(C(=O)O)c1C`, the TGI was over 100 µM.
In the case of `CN(C)c1ccc(/C=C(\C#N)C(N)=C(C#N)C#N)cc1`, the TGI is over 100 µM.
Still for that read-out and setting: the figure for `Cn1c2c(c3ccccc31)C1CCCCC1C1C(=O)NC(=O)C21` (configuration not stated) is over 100 µM; for `CCCCCNc1nonc1N` it is over 100 µM; for `O=C1C(/C=C/c2ccc(Cl)cc2)=NNC2N1N=C1NC(=O)C3(NN12)c1ccccc1-c1ccccc13` (configuration not stated) it is over 100 µM.
Same read-out and setting: under `CC(C)C1OC(=O)C=C1Sc1ccccc1` (configuration not stated) stands over 100 µM.
As to `C=C/C=C(\NC(=O)C(Cl)(Cl)Cl)[Si](C)(C)C`, the TGI was over 100 µM.
In turn, `CN1C2CC(=O)CC1[C@H](O)[C@@H]2O` returned a TGI of over 100 µM.
Same read-out and setting: under `COc1ccc(N2C(=O)C3ON(C(C(N)=O)c4ccccc4)C(c4ccc(-c5ccccc5)cc4)C3C2=O)cc1` (configuration not stated) stands over 50 µM; under `CCCCC(C)C1CCC2(C)C=CC(=O)C(C)=C2C1O` (configuration not stated), over 100 µM.
`CCOC(=O)C(=O)Nc1c(F)cc(F)cc1Br` returned a TGI of over 100 µM.
With `CCN(CC)CCCNc1cccc2c(SCc3ccccc3)ccnc12`, the GI50 was 2 µM and the TGI is 3.65 µM.
On the same counts, the results for `COc1ccc(-c2ccc(/C=N/n3c(COc4ccccc4Cl)nn(CN4CCN(C)CC4)c3=S)o2)c([N+](=O)[O-])c1` are 23.5 µM and 58.7 µM.
The molecule `CC1OC(OC2C(O[C@H]3CC[C@@]4(C)[C@@H](CC[C@@H]5[C@@H]4CC[C@]4(C)[C@@H]6[C@H](C[C@@H]54)O[C@]4(CC[C@@H](C)CO4)[C@H]6C)C3)OC(CO)C(OC3OC(CO)C(O)C(OC4OCC(O)C(O)C4O)C3OC3OCC(O)C(O)C3O)C2O)C(O)C(O)C1O` (some centres not stated) had a TGI of 2.56 µM.
`O=C1OCC(c2cccs2)=C1Cl`: the GI50 was 17 µM and the TGI came out at 51.3 µM.
As to `S=C(N/N=C(/c1ccccc1)c1ccccn1)Nc1ccccc1Cl`, the TGI stood at 13.7 µM.
On the same count and under the same terms, under `COc1ccc(-c2csc(=Nc3ccccc3)n2CC(O)c2ccc([N+](=O)[O-])cc2)cc1` (configuration not stated) stands over 100 µM; under `CCCCn1c(C)c(C(=O)OCC)s/c1=N/Nc1nc2ccccc2nc1-c1ccccc1`, over 100 µM.
With `N#CCCN(CCC#N)c1ccc(C(N=Nc2ccccc2)=Nc2ccccc2)cc1`, the TGI was over 100 µM.
Same read-out and setting: under `COc1nc(SC)nc2c1cnn2C1OC(C(O)CO)C(OC)C1O` (configuration not stated) stands over 100 µM; under `COC(OC)c1cccc2c1C(=O)CCC1(O)c3ccccc3C1C2` (configuration not stated), over 100 µM; under `O=C(CC(=O)N1N=C(N2CCCCC2)CC1c1ccccc1)Nc1ccc(Cl)cc1` (configuration not stated), over 100 µM.
As to `CCCc1cc(=O)oc2c3c(c4c(c12)OC(C)(C)C=C4)O[C@@H](C)[C@H](C)C3=O`, the TGI is 30.9 µM.
The same measure, in the same setting: the figure for `Cc1ccc(NC(=O)c2cccc([N+](=O)[O-])c2O)c([N+](=O)[O-])c1` is 49.1 µM.
`Cc1cc2cc3cc(C)c(N(C)C)cc3nc2cc1N(C)C`: the GI50 was 7.01 µM and the TGI was over 100 µM.
`COc1ccc2oc3c4c2c1CCC4CCC3=O` (configuration not stated) returned a TGI of over 100 µM.
Same read-out and setting: under `C1CCN(CCC2CCCCN2)CC1` (configuration not stated) stands over 100 µM.
Still for that read-out and setting: the figure for `O=C1CCC[C@]2(CCC[C@@H](O)C2)N1` is over 100 µM; for `N#Cc1c(-c2ccc([N+](=O)[O-])cc2)cc(-c2ccc(Nc3ccnc4cc(C(F)(F)F)ccc34)cc2)nc1N` it is over 66.7 µM.
On the same count and under the same terms, under `CC(N)C(C)Cc1ccccc1` (configuration not stated) stands over 100 µM.
In the case of `O=C1CN2Cc3cc(N4CCOCC4)ccc3N=C2N1`, the TGI was over 100 µM.
Still for that read-out and setting: the figure for `CN1CN(c2ccccc2)C2(CCN(CCCSc3ccccc3NC(=O)/C=C/c3ccccc3)CC2)C1=O` is over 100 µM; for `CC(=O)C1CC=C(C)CC1` (configuration not stated) it is over 100 µM.
The same measure, in the same setting: the figure for `COc1cc2c(cc1OCCOS(C)(=O)=O)N=C[C@@H]1CCCN1C2=O` is over 100 µM; for `NC(=O)N1N=C2c3ccccc3CC[C@@H]2C1c1ccccc1` (some centres not stated) it is over 100 µM.
Same read-out and setting: the figure for `Cn1c(=O)cc(NCc2ccc(Cl)cc2)[nH]c1=O` is over 100 µM; for `CN(C)CCNc1ccc2c(=O)n(CCN(C)C)c(=O)n3c4ccc([N+](=O)[O-])cc4c(=O)c1c23` it is 2.21 µM.
Take `CC(C)(C)NN=C1C(C)(C)C(=NNC(C)(C)C)C1(C)C`: the TGI is over 100 µM.
Take `CCNC1(c2cccc(C)c2)OC(C)(C)c2cccc3cccc1c23` (configuration not stated): the TGI stood at 41.4 µM.
Same read-out and setting: under `O=c1oc2ccccc2c(O)c1C(c1ccco1)c1c(O)c2ccccc2oc1=O` stands over 100 µM.
The molecule `CCOC(=O)c1csc(NC(=O)CCN2CCCCC2)n1` registered a TGI of over 100 µM.
Same read-out and setting: under `O=C(NNC(=S)Nc1ccccc1)c1ccccc1Nc1ccccc1C(=O)NNC(=S)Nc1ccccc1` stands 66.1 µM.
`CCCc1c(OC)c(=O)c2c(OC)cc(OC)c3c4c(OC)cc(OC)c5c(=O)c(OC)c(CCC)c(c1c23)c54` gave a TGI of 28.3 µM.
For `COc1cc(NCCCCN=C(N)NC(N)=NC(C)C)c2ncccc2c1`, the GI50 was 12 µM and the TGI amounted to 47.7 µM.
`CCCCCCCCCCCCCCCCCC1=NCCN1CS(=O)(=O)O`: the GI50 is 7.02 µM and the TGI came out at 20.2 µM.
The molecule `CC1(C2(C)OC(=O)c3ccccc32)OC(=O)c2ccccc21` (configuration not stated) registered a TGI of over 100 µM.
The same measure, in the same setting: the figure for `Cn1nc(/C=C\C(=O)N2CC(CCl)c3c2cc(N)c2ccccc32)cc1/C=C/C(=O)N1CC(CCl)c2c1cc(N)c1ccccc21` (configuration not stated) is 0.0245 µM.
